In all, about 360,000 compounds went through this assay and about 16,000 (4.4%) were called active. Inconclusive means that the source gave no clear call. Such entries were picked first, then a sample of the others. Calls follow the shape of the dose curve; as a rule, active = well fitted inhibition curve with a large enough effect; inconclusive = small, poorly fitted or top-dose-only effect; inactive = no such curve, though single readings can be large or run the other way. Where the call is inconclusive, the potency comes from a doubtful curve fit.
These compounds were tested against Bromodomain adjacent to zinc finger domain protein 2B (Homo sapiens) (UniProt Q9UIF8) (assay: qHTS Assay for Inhibitors of BAZ2B). Conditions: AlphaScreen BAZ2B-H3K14Ac peptide displacement; activity change, negative = inhibition: at 114 µM (top of the series).
Chain of UniProt Q9UIF8 (Q9UIF8 whole entry, looked up, the tested form may be a part): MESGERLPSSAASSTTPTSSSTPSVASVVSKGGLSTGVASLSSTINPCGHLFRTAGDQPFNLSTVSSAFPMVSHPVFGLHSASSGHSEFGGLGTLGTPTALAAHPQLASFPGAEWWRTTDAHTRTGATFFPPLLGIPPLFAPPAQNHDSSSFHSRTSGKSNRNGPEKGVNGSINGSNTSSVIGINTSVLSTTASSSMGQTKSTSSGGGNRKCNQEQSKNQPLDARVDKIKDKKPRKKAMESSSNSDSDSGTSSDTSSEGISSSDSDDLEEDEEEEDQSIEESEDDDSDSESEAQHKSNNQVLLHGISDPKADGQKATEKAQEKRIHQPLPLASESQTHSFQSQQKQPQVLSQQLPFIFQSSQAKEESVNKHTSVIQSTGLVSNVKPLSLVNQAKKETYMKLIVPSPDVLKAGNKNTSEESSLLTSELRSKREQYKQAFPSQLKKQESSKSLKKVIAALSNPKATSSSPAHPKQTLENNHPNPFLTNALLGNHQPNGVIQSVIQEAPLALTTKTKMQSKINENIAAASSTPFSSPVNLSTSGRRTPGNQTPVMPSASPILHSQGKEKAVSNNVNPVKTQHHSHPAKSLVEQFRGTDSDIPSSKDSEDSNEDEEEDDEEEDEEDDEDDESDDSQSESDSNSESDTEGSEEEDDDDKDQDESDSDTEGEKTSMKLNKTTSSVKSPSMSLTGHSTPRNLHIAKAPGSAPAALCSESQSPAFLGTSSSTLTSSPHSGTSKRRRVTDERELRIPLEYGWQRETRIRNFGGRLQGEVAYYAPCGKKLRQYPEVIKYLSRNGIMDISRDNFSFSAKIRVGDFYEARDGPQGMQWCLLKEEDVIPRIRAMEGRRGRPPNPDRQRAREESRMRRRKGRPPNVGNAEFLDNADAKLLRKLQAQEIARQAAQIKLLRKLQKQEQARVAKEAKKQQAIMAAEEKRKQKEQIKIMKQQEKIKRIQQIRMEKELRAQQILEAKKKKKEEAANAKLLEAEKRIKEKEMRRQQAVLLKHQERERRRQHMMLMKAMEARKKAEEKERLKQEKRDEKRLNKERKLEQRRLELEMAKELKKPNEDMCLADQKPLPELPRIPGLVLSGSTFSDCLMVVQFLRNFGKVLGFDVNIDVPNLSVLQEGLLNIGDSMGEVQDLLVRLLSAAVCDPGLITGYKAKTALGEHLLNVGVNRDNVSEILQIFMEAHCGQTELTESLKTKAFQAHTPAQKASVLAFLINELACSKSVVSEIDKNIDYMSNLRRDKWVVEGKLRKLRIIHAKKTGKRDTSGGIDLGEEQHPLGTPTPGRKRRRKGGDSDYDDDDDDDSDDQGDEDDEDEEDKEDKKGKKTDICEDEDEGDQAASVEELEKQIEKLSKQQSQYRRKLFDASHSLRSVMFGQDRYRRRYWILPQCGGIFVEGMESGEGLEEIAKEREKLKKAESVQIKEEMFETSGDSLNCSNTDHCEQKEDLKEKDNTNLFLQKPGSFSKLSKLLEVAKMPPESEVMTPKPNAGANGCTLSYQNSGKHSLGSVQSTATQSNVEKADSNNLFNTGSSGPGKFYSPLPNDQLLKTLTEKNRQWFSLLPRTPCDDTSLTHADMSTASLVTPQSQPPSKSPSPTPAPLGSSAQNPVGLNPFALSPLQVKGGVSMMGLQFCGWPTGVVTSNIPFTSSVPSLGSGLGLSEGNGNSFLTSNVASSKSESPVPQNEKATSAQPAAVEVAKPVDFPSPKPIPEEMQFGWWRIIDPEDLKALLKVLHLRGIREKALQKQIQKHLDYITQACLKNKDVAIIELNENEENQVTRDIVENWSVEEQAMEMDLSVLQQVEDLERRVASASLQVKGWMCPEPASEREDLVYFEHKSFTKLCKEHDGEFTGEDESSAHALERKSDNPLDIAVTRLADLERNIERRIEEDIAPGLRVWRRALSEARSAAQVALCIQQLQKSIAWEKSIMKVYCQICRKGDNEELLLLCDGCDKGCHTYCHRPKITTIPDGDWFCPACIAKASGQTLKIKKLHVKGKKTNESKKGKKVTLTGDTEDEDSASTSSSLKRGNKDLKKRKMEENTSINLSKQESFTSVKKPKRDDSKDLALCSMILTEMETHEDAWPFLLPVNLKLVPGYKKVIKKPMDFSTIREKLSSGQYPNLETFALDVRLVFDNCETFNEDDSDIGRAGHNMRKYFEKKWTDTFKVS
Procedure, shortened: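 Compounds, titrated to a top concentration of 110 uM, were incubated 30 min at room temperature with preformed BAZ2B/acetyl-K14 H3 peptide complex (50 nM each). Proximity signal was measured by AlphaScreen after 20 min with beads.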
In the case of CCCCCSc1cc(OC)c(CCN)cc1OC, the Potency was inconclusive: 70.8 µM [inhibitor, single point].
COc1ccc(NP(=O)(Oc2ccc(Cl)cc2)Oc2ccc(Cl)cc2)cc1OC was tested, and the Potency was inconclusive: 79.4 µM [inhibitor, single point].
For Oc1cc2c(cc1CN1CCN(c3ccc(F)cc3)CC1)OCO2, the Potency was inconclusive: 50.1 µM [inhibitor, partial curve].
With Cn1c(=O)n(C)c2cc(CNCCc3ccccc3F)ccc21 the Potency was inconclusive: 89.1 µM [inhibitor, single point].
With O=[N+]([O-])c1ccc(N2CCCCCC2)c2ncccc12 the Potency was active: 14.1 µM.
For Cn1cccc1/C=C1\C(=O)NC(=O)N(Cc2ccccc2)C1=O, the Potency was active: 50.1 µM.
With COc1ccc(OC)c(CN2CCN(C(=O)COc3cccc(C)c3)CC2)c1 the activity change, negative = inhibition was inconclusive: -58.4% [inhibitor].
In the case of CCOC(=O)c1c(C)n(Cc2ccc3c(c2)OCO3)c2ccc(O)cc12, the Potency was inconclusive: 79.4 µM [inhibitor, single point].
For COc1ccc2c(c1)CC1(CN2C)C(=O)NC(=O)N(c2ccc(C)cc2)C1=O (stereo not drawn), the Potency was inconclusive: 89.1 µM [inhibitor, single point].
For Cc1cccc(N2C(=O)NC(=O)/C(=C\c3ccc(N4CCOCC4)cc3)C2=O)c1, the “activity change, negative = inhibition” value was inactive: -13%.
For CCOP(=S)(OCC)Oc1cc(C)oc(=O)c1, the Potency was inconclusive: 56.2 µM [inhibitor, partial curve].
For Cc1ccsc1/C=C1\C(=O)NC(=S)N(C)C1=O, the Potency was inconclusive: 44.7 µM [inhibitor, partial curve].
For CCOc1ccc(-n2c(O)c(N=Nc3c(C)n(C)n(-c4ccccc4)c3=O)c(=O)[nH]c2=O)cc1, the Potency was active: 14.1 µM.
In the case of Oc1ccccc1C1NCc2ccccc2-n2cccc21 (stereo not drawn), the Potency was inconclusive: 79.4 µM [inhibitor, partial curve].
For CC(Cc1ccccc1)NC(=O)Cc1ccc([N+](=O)[O-])cc1 (stereo not drawn), the Potency was inconclusive: 100 µM [inhibitor, single point].
For COc1cccc(N2C(=O)NC(=O)/C(=C/c3ccc4c(c3)Cc3ccccc3-4)C2=O)c1, the Potency was active: 44.7 µM.
In the case of O=c1cc(-c2ccc(O)c(O)c2)oc2c(C3O[C@H](CO)[C@@H](O)[C@H](O)[C@H]3O)c(O)cc(O)c12 (stereo partly drawn), the Potency was inconclusive: 50.1 µM [inhibitor, partial curve].
For COc1ccc(CN2C(=O)NC(=O)/C(=C\c3cc(OC)c(OC)c(OC)c3)C2=O)cc1, the Potency was inconclusive: 89.1 µM [inhibitor, single point].
For Cc1[nH]n(-c2ccccc2)c(=O)c1C(C[N+](=O)[O-])c1ccccc1Cl (stereo not drawn), the Potency was inconclusive: 50.1 µM [inhibitor, partial curve].
In the case of O=C1CN=C(c2ccc[nH]2)c2cc(Cl)ccc2N1, the Potency was inconclusive: 79.4 µM [inhibitor, single point].
With CCOc1ccc(Nc2c(S(=O)(=O)c3ccc(C)cc3)cnc3ccccc23)cc1 the Potency was inconclusive: 70.8 µM [inhibitor, partial curve].
For Cc1ccccc1CN1CCN(c2ccc(Cl)cc2)CC1, the Potency was inconclusive: 89.1 µM [inhibitor, single point].
CCN1CCN(Cc2nc3ccc([N+](=O)[O-])cc3c(=O)n2-c2ccccc2F)CC1 was tested, and the “activity change, negative = inhibition” value was inactive: 2.15%.
For COc1cc(C(=O)N2C[C@H]3C[C@@H](C2)c2cccc(=O)n2C3)cc(OC)c1OC, the “activity change, negative = inhibition” value was inactive: -7.73%.
In the case of O=C(Cc1ccccc1)N1CCN(CCCc2ccccc2)CC1, the Potency was active: 56.2 µM.
With CCn1c(NN=O)nc2ccccc21 the Potency was active: 56.2 µM.
In the case of Cc1ccc(/C=C2\C(=O)NC(=O)N(Cc3ccccc3Cl)C2=O)o1, the Potency was active: 31.6 µM.
With Cc1cc(C)n(C(=O)c2ccc([N+](=O)[O-])cc2[N+](=O)[O-])n1 the Potency was inconclusive: 50.1 µM [inhibitor, partial curve].
In the case of O=[N+]([O-])c1cccc2c([N+](=O)[O-])cccc12, the Potency was inconclusive: 89.1 µM [inhibitor, single point].
For Cc1ccc(-n2c(/C=C/c3cc(Br)cs3)nc3ccccc3c2=O)cc1C, the “activity change, negative = inhibition” value was inactive: -8.14%.
For C[C@]12CC[C@@H]3c4ccc(O)cc4C(=O)C[C@H]3[C@@H]1CC[C@@H]2O, the Potency was inconclusive: 100 µM [inhibitor, partial curve].
Cc1cc(C)cc(N2C(=O)NC(=O)/C(=C/c3cccn3-c3ccc(Cl)cc3)C2=O)c1 was tested, and the “activity change, negative = inhibition” value was inactive: -9.74%.
For O=C(Cn1c(=O)oc2cc(S(=O)(=O)N3CCCC3)ccc21)N1CCN(c2ccccc2F)CC1, the Potency was inconclusive: 89.1 µM [inhibitor, single point].
In the case of CNc1ccc2nc3ccccc3[n+](C)c2c1, the Potency was active: 35.5 µM.
In the case of CCOc1cc(C2NCc3ccccc3-n3cccc32)ccc1O (stereo not drawn), the Potency was inconclusive: 44.7 µM [inhibitor, partial curve].
In the case of Cc1nc2cc(F)ccc2n1C1CCN(Cc2nnnn2CCc2ccccc2)CC1, the Potency was active: 56.2 µM.
In the case of N#CC(C#N)=Cc1ccc(O)c(O)c1, the Potency was active: 79.4 µM.
In the case of CC(C)[C@H]1C(=O)N2CCC[C@H]2[C@]2(O)O[C@](NC(=O)[C@@H]3C=C4c5cccc6[nH]cc(c56)C[C@H]4N(C)C3)(C(C)C)C(=O)N12, the Potency was inconclusive: 44.7 µM [inhibitor, partial curve].
With CCN1CCN(Cc2cc(OC)c(OC)cc2[N+](=O)[O-])CC1 the Potency was inconclusive: 89.1 µM [inhibitor, single point].
For Cc1oc(-c2ccccc2)nc1CN1C(=O)C(C)N=C(c2ccccc2F)c2cc(Cl)ccc21 (stereo not drawn), the Potency was inconclusive: 28.2 µM [inhibitor, full curve, poor fit].
With Oc1ccc(/C=N/NP(=S)(c2ccccc2)c2ccccc2)cc1 the Potency was inconclusive: 89.1 µM [inhibitor, single point].
In the case of N#CC(C#N)=NNc1ccc(S(N)(=O)=O)cc1, the Potency was inconclusive: 79.4 µM [inhibitor, partial curve, poor fit].
COc1cc(CN2CCc3nc(N4CCN(c5ccccc5F)CC4)ncc3C2)ccc1OC(C)C was tested, and the Potency was inconclusive: 31.6 µM [inhibitor, partial curve].

— PubChem BioAssay AID504333 (National Center for Advancing Translational Sciences (NCATS), 2011)
% is scaled to controls: 0 for no effect and ±100 for the full control effect; potency is read from the fitted curve at half-maximal effect; tags tell the direction and shape of the fitted curve.
Also: nearly all actives have a fitted effect of over 60% in size.
